# Test results as given in PubChem BioAssay (NCATS).
# This list was built around the results that the source calls inconclusive (neither active nor inactive); the mix of calls is not that of the screen. For some of these results: No potency is given beside an inconclusive call; the fits are too rough. Calls of active or inactive are those of the source. Unless noted, calls follow the shape of the dose curve; as a rule, active = well fitted curve in the direction sought with a large enough effect; inconclusive = small, poorly fitted or top-dose-only effect, or another doubt; inactive = no such curve, though single readings can be large; an effect the other way counts as inactive or inconclusive.
# Experiments:
# [1] = target: Endonuclease 4 (Escherichia coli (strain K12)) (UniProt P0A6C1); test: Counterscreen for APE1 Inhibitors: qHTS Validation Assay for Inhibitors of Endonuclease IV (AID 1708); also: potency is read from the fitted curve at half-maximal effect
# How it was run: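 Enzymatic AP-site incision assay using a double-stranded THF substrate labelled with TAMRA and BHQ-2; released fluorescence signals activity. Enzyme 2 nM, substrate 50 nM, 15 min compound preincubation.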
# [2] = qHTS for differential inhibitors of proliferation of Plasmodium falciparum line 7G8 (AID 1815);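 also: parasite growth measured after three days of incubation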; also: potency is read from the fitted curve at half-maximal effect
# [3] = qHTS for differential inhibitors of proliferation of Plasmodium falciparum line GB4 (AID 1816); details: Potency: Plasmodium falciparum GB4 proliferation inhibition;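 also: potency is read from the fitted curve at half-maximal effect; parasite growth measured after 72 h incubation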
# [4] = qHTS for differential inhibitors of proliferation of Plasmodium falciparum line D10 (AID 1877);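 also: parasites grown with compound for 72 h before DNA staining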; also: potency is read from the fitted curve at half-maximal effect
# [5] = qHTS for differential inhibitors of proliferation of Plasmodium falciparum line Dd2 (AID 1882); details: Potency: Plasmodium falciparum Dd2 proliferation inhibition; also: potency is read from the fitted curve at half-maximal effect; nearly all actives have a fitted effect of over 65% in size
# How it was run: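 SYBR Green I DNA fluorescence read-out, ex 485/em 535 nm. Signals were normalized to 0.29 uM artemisinin and DMSO wells, then corrected using vehicle-only plates flanking each stack. Parasite growth ran 72 h in erythrocytes before lysis.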
# [6] = qHTS for differential inhibitors of proliferation of Plasmodium falciparum line W2 (AID 1883); details: Potency: Plasmodium falciparum W2 proliferation inhibition;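 also: parasites grown with compound for 72 h before lysis and staining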; also: potency is read from the fitted curve at half-maximal effect
# [7] = target: RecQ-like DNA helicase BLM (Homo sapiens) (UniProt P54132); test: qHTS Validation Assay for Inhibitors of Bloom's syndrome helicase (BLM) (AID 2364); also: potency is read from the fitted curve at half-maximal effect
# Chain of UniProt P54132 (P54132 whole entry, looked up): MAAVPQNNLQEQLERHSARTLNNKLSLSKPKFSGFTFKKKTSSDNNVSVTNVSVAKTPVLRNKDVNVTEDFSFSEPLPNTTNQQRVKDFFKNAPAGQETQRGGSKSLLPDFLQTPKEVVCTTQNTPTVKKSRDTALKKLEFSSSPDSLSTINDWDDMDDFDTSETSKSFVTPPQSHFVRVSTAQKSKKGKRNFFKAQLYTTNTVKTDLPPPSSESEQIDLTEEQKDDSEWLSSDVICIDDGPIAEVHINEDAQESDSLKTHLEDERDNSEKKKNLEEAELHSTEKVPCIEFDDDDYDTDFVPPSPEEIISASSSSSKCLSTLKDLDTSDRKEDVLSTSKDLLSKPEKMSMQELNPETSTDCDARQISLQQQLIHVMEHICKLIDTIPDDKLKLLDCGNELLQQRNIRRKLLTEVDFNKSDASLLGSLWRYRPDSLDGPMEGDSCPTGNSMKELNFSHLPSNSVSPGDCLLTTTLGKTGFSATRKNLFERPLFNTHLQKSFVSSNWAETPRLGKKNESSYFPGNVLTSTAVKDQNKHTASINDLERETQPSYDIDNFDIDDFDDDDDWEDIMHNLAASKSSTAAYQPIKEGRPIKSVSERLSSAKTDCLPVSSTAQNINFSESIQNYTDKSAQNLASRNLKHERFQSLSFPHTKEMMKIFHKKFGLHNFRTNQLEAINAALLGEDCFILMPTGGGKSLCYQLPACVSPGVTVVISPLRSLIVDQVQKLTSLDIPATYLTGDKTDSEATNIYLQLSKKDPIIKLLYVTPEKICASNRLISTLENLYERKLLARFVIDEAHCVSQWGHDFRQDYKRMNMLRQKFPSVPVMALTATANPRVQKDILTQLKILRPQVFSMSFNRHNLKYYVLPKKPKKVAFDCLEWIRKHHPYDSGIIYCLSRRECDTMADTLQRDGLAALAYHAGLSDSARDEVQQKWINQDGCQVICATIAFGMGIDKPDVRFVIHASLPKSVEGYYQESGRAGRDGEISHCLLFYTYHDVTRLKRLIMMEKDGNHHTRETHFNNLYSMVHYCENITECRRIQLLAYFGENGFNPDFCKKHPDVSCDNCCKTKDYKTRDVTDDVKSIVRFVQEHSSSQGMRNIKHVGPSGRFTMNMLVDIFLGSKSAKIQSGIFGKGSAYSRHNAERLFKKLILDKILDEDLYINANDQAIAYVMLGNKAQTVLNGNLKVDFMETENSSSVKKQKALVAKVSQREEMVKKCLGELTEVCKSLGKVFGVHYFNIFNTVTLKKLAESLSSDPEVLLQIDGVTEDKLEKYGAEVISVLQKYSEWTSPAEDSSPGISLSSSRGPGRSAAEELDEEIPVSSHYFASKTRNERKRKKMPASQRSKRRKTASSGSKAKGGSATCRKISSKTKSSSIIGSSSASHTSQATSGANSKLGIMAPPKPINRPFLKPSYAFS
# How it was run: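 Forked 20-bp duplex substrate (200 nM, TAMRA/BHQ-2) plus 2 mM ATP added after 15 min compound preincubation with 50 nM enzyme, pH 8.0, poly(dI-dC) 2.5 ug/ml. Strand separation followed by fluorescence (525/598 nm) over 2 h, normalized to enzyme-free and DMSO controls.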
# [8] = qHTS for differential inhibitors of proliferation of Plasmodium falciparum line 3D7 (AID 1876); also: potency is read from the fitted curve at half-maximal effect
# [9] = qHTS for differential inhibitors of proliferation of Plasmodium falciparum line HB3 (AID 1886); details: Potency: Plasmodium falciparum HB3 proliferation inhibition;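 also: potency is read from the fitted curve at half-maximal effect; parasites grown with compound for 72 h before SYBR Green readout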
# [10] = target: DNA repair nuclease/redox regulator APEX1 (Homo sapiens) (UniProt P27695); test: qHTS Validation Assay for Inhibitors of the Human Apurinic/apyrimidinic Endonuclease 1 (APE1) (AID 1705; also: potency is read from the fitted curve at half-maximal effect)
# Chain of UniProt P27695 (P27695 whole entry, looked up): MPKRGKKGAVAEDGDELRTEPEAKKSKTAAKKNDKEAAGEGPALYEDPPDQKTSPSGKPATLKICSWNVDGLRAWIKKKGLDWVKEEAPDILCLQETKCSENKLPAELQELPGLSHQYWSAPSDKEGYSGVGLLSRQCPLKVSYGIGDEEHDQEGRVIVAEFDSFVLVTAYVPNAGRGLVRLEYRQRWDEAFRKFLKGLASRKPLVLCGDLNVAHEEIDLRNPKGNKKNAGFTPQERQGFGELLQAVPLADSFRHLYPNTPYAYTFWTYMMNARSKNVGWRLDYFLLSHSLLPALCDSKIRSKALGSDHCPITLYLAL
# How it was run: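 Fluorogenic double-stranded THF abasic-site substrate (5'-TAMRA/3'-BHQ-2), 50 nM final. Enzyme preincubated with compound 15 min at room temperature, then substrate added. Kinetic fluorescence (ex 525/em 598 nm) read three times at 60 s intervals; activity taken as third-minus-first read difference.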
# [11] = Counterscreen for APE1 Inhibitors: Fluorescent Dye Displacement Validation Assay (AID 1707); also: potency is read from the fitted curve at half-maximal effect
# How it was run: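 Assay buffer: Tris-HCl pH7.5 with 50mM NaCl, 2 mM MgCl2, 0.01% Tween-20. Dye 250 nM, duplex 50 nM final. Readout: decrease in ThO endpoint fluorescence, 480 nm excitation, 540 nm emission.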
# [12] = target: ATP-dependent DNA helicase Q1 (Homo sapiens) (UniProt P46063); test: qHTS Validation Assay for Inhibitors of RecQ-Like Dna Helicase 1 (RECQ1) (AID 2353); also: potency is read from the fitted curve at half-maximal effect
# Chain of UniProt P46063 (P46063 whole entry, looked up): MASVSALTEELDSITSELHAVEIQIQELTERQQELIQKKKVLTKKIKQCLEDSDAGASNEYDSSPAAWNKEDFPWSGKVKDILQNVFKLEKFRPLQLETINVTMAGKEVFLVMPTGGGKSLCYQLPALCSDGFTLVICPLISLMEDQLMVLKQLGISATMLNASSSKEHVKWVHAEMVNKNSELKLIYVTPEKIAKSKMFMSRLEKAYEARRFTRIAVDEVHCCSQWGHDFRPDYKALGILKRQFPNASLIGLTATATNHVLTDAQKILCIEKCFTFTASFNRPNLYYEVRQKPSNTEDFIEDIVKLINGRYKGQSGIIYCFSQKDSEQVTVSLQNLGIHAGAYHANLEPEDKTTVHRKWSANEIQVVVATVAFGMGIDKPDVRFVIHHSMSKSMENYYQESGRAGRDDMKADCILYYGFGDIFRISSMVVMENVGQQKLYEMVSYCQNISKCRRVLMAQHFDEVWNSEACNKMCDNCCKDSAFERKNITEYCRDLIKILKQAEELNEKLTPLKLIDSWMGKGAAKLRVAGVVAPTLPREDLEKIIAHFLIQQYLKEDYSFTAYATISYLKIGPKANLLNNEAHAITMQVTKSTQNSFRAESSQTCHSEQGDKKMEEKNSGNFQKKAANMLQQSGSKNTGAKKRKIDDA
# How it was run: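 50 nM RECQ1T1 preincubated 15 min with compound in Tris pH 8.0 buffer with MgCl2, DTT, Tween-20 and 2.5 ug/ml poly(dI-dC); started with 200 nM TAMRA/BHQ-2 forked duplex and 2 mM ATP. Unwinding read as fluorescence (525/598 nm), two reads 2 h apart.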
# [13] = target: Ferritin light chain (Equus caballus) (UniProt P02791); test: qHTS Validation Assay for Identification of Novel General Anesthetics (AID 2323); also: potency is read from the fitted curve at half-maximal effect
# Chain of UniProt P02791 (P02791 whole entry, looked up): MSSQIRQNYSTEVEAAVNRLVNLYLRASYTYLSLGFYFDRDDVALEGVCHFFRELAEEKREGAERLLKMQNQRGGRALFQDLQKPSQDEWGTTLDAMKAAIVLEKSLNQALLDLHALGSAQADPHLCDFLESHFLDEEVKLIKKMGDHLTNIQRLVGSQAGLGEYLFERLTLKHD
# How it was run: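 Horse-spleen apoferritin (10 uM) in PBS with 50% saturated 1-aminoanthracene; compounds pin-transferred, 10 min at room temperature. Fluorescence read at 380/535 nm, normalized to free 1-AMA and 1-AMA/apoferritin values; four-parameter Hill fit.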
# [14] = Cytometric Cell-Based qHTS for Inhibitors of the mTORC1 Signaling Pathway in MEF (Tsc2-/-, p53-/-) Cells (AID 2660); also: potency is read from the fitted curve at half-maximal effect
# How it was run: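 Cells are plated, treated with compound for 24 hrs at 37 degree Celsius, then fixed, blocked and immunostained for phospho-rpS6 Ser235/236. Propidium iodide counterstain follows. Per-well % positive cells is derived from the PI-normalized phospho-S6 signal.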
# [15] = High Content Imaging Cell-Based qHTS for Inhibitors of the mTORC1 Signaling Pathway in MEF (Tsc2-/-, p53-/-) Cells (AID 2666);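 also: percent of cells scored positive for phospho-rpS6 Ser235/236 immunostaining by imaging; potency is read from the fitted curve at half-maximal effect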
# How it was run: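 Cells were plated, dosed with compound after 24 hrs, and incubated another 24 hrs at 37 degree Celsius. Fixed cells were immunostained for phospho-rpS6 Ser235/236 and counterstained, and the normalized signal was scored as % active cells against rapamycin and DMSO controls.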
# [16] = qHTS Assay for Modulators of Human Peripheral Myelin Protein 22 (PMP22) Expression/Activity (AID 1967; active = well fitted curve in the direction sought with a large enough effect in the signal ratio; inconclusive = small, poorly fitted or top-dose-only effect, or effect the other way, or a change in a side signal; inactive = no such curve, though single readings can be large or run the other way; the % refers to the signal ratio;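 also: 0% = untreated cells and 100% end not stated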); details: Cell-based PMP22 reporter, dual-color luciferase ratio, mouse Pmp22 promoter in mouse Schwann cells; activity change (ratio): at 115 µM (top of the series)
# How it was run: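 Mouse MSC80 Schwann cells carrying Pmp22 promoter–green click beetle luciferase plus EF-alpha–red luciferase control, dosed 24 h at 37 °C. Dual-filter luminescence, overlap-corrected; %Activity from green/red ratio normalised to untreated cells, concentration-response curves fitted.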
# Tags tell the direction and shape of the fitted curve.
compound,measurement,setting,value
Oc1ccc2c3c1O[C@H]1c4[nH]c5c(c4C[C@@]4(O)[C@@H](C2)N(CC2CC2)CC[C@]314)C[C@@]1(O)[C@H]2Cc3ccc(O)c4c3[C@@]1(CCN2CC1CC1)[C@H]5O4,Potency,[1],"inconclusive [inhibitor, partial curve, poor fit]"
same,Potency,[2],"inconclusive [inhibitor, single point]"
same,Potency,[3],active: 15.8 µM
same,Potency,[4],active: 10 µM
same,Potency,[5],"inconclusive [inhibitor, single point]"
same,Potency,[6],active: 12.6 µM
same,Potency,[7],inactive
O=C1NCN(c2ccccc2)C12CCN(CC1COc3ccccc3O1)CC2 (stereo not drawn),Potency,[1],"inconclusive [inhibitor, partial curve, poor fit]"
same,Potency,[3],"inconclusive [inhibitor, partial curve]"
same,Potency,[8],"inconclusive [inhibitor, single point]"
same,Potency,[4],"inconclusive [inhibitor, partial curve]"
same,Potency,[9],"inconclusive [inhibitor, partial curve]"
same,Potency,[7],"inconclusive [inhibitor, partial curve, poor fit]"
O=c1c(O)c(-c2ccc(O)c(O)c2)oc2cc(O)cc(O)c12,Potency,[10],"inconclusive [inhibitor, partial curve, poor fit]"
same,Potency,[11],active: 2.51 µM
same,Potency,[3],active: 2.51 µM
same,Potency,[4],active: 7.08 µM
same,Potency,[12],"inconclusive [inhibitor, full curve]"
same,Potency,[7],active: 28.2 µM
O=c1[nH]c2ccccc2n1C1CCN(CCCC(c2ccc(F)cc2)c2ccc(F)cc2)CC1,Potency,[10],"inconclusive [inhibitor, partial curve]"
same,Potency,[1],"inconclusive [inhibitor, partial curve]"
same,Potency,[8],active: 3.16 µM
same,Potency,[13],"inconclusive [inhibitor, partial curve, poor fit]"
same,Potency,[7],"inconclusive [inhibitor, partial curve]"
same,Potency,[14],"inconclusive [falling, single point]"
same,Potency,[15],"inconclusive [falling, single point]"
CNCC(O)c1ccc(O)cc1 (stereo not drawn),Potency,[1],inactive
same,Potency,[2],inactive
same,Potency,[7],"inconclusive [inhibitor, full curve, poor fit]"
Fc1ccc(C(OCCN2CCN(CCCc3ccccc3)CC2)c2ccc(F)cc2)cc1,Potency,[1],"inconclusive [inhibitor, partial curve]"
same,Potency,[3],active: 3.98 µM
same,Potency,[5],active: 7.94 µM
same,Potency,[13],"inconclusive [inhibitor, partial curve, poor fit]"
same,Potency,[7],"inconclusive [inhibitor, partial curve]"
same,Potency,[14],"inconclusive [falling, single point]"
same,Potency,[15],"inconclusive [falling, single point]"
COC[C@H]1OC(=O)c2coc3c2[C@@]1(C)C1=C(C3=O)C2CCC(=O)[C@@]2(C)C[C@H]1OC(C)=O (stereo partly drawn),Potency,[1],"inconclusive [inhibitor, partial curve, poor fit]"
same,Potency,[2],"inconclusive [inhibitor, partial curve]"
same,Potency,[3],"inconclusive [inhibitor, partial curve]"
same,Potency,[4],inactive
same,Potency,[9],"inconclusive [inhibitor, single point]"
same,Potency,[7],inactive
CN(N=O)c1ccc(O)c(O)c1,Potency,[10],active: 0.501 µM
same,Potency,[11],active: 14.1 µM
same,Potency,[1],active: 8.91 µM
same,Potency,[3],"inconclusive [inhibitor, single point]"
same,Potency,[8],inactive
same,Potency,[6],"inconclusive [inhibitor, partial curve]"
same,Potency,[9],"inconclusive [inhibitor, partial curve]"
same,activity change (ratio),[16],inconclusive: 3.97%
same,Potency,[13],"inconclusive [inhibitor, partial curve]"
same,Potency,[12],active: 1.12 µM
same,Potency,[7],active: 6.31 µM
C[N+](C)(C)CC(=O)O,Potency,[11],inactive
same,Potency,[6],inactive
same,Potency,[7],inactive
O=[N+]([O-])c1ccc(O[C@@H]2O[C@H](CO)[C@@H](O)[C@H](O)[C@H]2F)c([N+](=O)[O-])c1,Potency,[12],inactive
Cc1nc(-c2ccc(-c3ccc(C(=O)N4CCc5cc6c(cc54)C4(CCN(C)CC4)CO6)cc3)c(C)c2)no1,Potency,[12],"inconclusive [inhibitor, single point]"
